Assay results as given in article PMC4336329 (PLoS ONE, 2015).
The whole screen tested about 310,000 compounds, of which about 2,200 (0.71%) showed an effect of 50% or more. Effects have a minus sign here. Some of the results follow.

biological target: human ether-à-go-go-related gene (hERG) potassium channel (human, UniProt Q12809); test: primary screen, population patch clamp on CHO cells stably expressing hERG
Sequence (Q12809 whole entry, looked up): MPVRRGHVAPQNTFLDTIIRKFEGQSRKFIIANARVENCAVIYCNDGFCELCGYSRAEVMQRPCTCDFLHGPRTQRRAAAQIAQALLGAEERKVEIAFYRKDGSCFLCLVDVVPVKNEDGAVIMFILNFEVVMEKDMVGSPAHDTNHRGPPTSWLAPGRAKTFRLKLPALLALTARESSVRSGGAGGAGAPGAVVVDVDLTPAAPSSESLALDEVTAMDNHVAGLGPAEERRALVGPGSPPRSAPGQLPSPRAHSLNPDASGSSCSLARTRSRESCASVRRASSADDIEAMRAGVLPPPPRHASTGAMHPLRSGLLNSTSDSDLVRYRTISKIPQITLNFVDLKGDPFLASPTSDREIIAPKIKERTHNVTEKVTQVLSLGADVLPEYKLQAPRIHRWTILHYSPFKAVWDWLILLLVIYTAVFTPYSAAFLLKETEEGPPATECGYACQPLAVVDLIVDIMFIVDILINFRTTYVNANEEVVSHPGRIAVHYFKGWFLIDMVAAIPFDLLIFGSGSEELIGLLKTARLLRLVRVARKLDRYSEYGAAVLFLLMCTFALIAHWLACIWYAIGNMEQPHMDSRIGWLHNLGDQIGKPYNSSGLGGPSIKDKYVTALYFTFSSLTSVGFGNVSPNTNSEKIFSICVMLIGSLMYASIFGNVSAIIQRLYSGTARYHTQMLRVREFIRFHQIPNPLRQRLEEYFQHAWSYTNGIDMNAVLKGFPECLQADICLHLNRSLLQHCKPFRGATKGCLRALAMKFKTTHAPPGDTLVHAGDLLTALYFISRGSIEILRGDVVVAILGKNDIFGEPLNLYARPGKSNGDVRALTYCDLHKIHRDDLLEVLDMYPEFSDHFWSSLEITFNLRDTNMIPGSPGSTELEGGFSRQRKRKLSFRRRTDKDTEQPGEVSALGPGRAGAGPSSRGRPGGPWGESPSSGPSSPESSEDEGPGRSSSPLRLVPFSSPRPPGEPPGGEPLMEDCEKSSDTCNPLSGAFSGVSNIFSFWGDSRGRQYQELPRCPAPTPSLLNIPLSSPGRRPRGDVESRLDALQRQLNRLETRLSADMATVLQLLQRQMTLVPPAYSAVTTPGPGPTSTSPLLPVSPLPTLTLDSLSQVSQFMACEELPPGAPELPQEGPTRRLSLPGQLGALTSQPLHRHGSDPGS

Compound	hERG current change (%, negative = inhibition) at 1uM [%]
Cc1ccccc1CN1CCNC1=O	12.8
Cc1nc(CSc2ccc(Br)cc2)cs1	18.3
CCC(C(=O)NC1CC(C)(C)NC(C)(C)C1)c1ccccc1 (stereo not drawn)	10.2
CC1CCc2cc(F)cc3c(O)c(C(=O)NCCN(C)C)c(=O)n1c23.Cl (stereo not drawn)	12.2
Cc1nc2ccccc2n1CCc1nc2c3ccccc3nc(SCC(=O)NCc3ccco3)n2n1	-20.8
NS(=O)(=O)c1ccc(NC(=S)NC2CCCCCC2)cc1	16.2
O=C(CN1C(=O)NC2(CCCC2)C1=O)N1CCN(S(=O)(=O)c2cc(Cl)ccc2Cl)CC1	-1.72
COc1ccc(CCN(C)C(=O)c2ccc(S(=O)(=O)Nc3ccccc3C)cc2)cc1OC	10.8
Cn1c(CC(=O)Nc2ccc(F)cc2)nnc1SCC(=O)Nc1nncs1	15
C=CCn1c(NC(=O)c2ccccc2Cl)c(C#N)c2nc3ccccc3nc21	-9.9
CC(C)=NNC(=O)c1c(O)c2ccccc2[nH]c1=O	-2.13
Cc1cc(OCC(=O)OCC(=O)N2CCc3ccccc32)ccc1Cl	11.4
O=C(NC(=S)Nc1ccc2nc[nH]c2c1)c1ccccc1	15
CC(=O)c1ccc(N2CCN(C(=O)CN3C(=O)NC4(CCCCC4)C3=O)CC2)c(F)c1	5.01
CCn1c2ccccc2c2cc(NC(=O)C(C)Oc3ccccc3)ccc21 (stereo not drawn)	-0.0677
CCn1nc(C)c(NC(=O)CCSc2nc(-c3ccco3)cc(C(F)(F)F)n2)c1C	-0.91
COc1ccc(CCNc2nc(-c3ccc(F)cc3)c(CC(=O)O)s2)cc1OC	7.55
O=C(NCCCN1CCCC1=O)Nc1ccccc1Cl	17.8
Cc1ccc(C2C3=C(CC(C)(C)CC3=O)N=C3c4ccccc4C(=O)C32)cc1 (stereo not drawn)	7.98
CCOC(=O)c1nncc(-c2ccccc2)n1	10.9
COc1ccc2[nH]c3c(=O)n(/N=C/c4ccc(OC)c(CN5CCCC5)c4)c(C)nc3c2c1	-5.58
COc1ccc(-c2nnn(CC(=O)OC3CCCCC3)n2)cc1OC	21.3

Compound	hERG current change (%, negative = inhibition) at 1uM [%]
CSc1cccc(NC(=S)N2CCCN(Cc3ccccc3F)C2)c1	3.93
CN1c2ccccc2C(C)(C)C12CC(c1ccc(S(=O)(=O)N3CCCCC3)cc1)=NO2 (stereo not drawn)	8.16
COc1ccc(NCc2n[nH]c(=O)c3ccccc23)cc1	9.74
CN(C)c1ccc(C2C3C=CC(C3)C2(C#N)C(=O)O)c(Br)c1 (stereo not drawn)	14.7
CCC(C)Sc1nc2c(c(=O)n1C)SC(C)C2 (stereo not drawn)	6.38
CCN(CC)S(=O)(=O)c1ccc(C(=O)NN(C)C2=NS(=O)(=O)c3ccccc32)cc1	14.5
CCOc1ccc(S(=O)(=O)NCCCn2ccnc2)cc1	9.49
CC(C)(C)OC(=O)N1CCC(NC(=O)c2[nH]cnc2C(=O)Nc2ccccc2)CC1	10.5
CCN1CCc2c(sc(NC(=O)c3ccc(S(=O)(=O)N(C)CC4CCCO4)cc3)c2C(N)=O)C1.Cl (stereo not drawn)	1.8
O=C(O)CSC1c2ccccc2C(=O)N1Cc1ccccc1 (stereo not drawn)	12.1
COc1ccc(CCN(C)C2CCCN(C(=O)c3sccc3C)C2)cc1OC (stereo not drawn)	-40.3
Cc1ccoc1C(=O)NCc1occc1C(=O)O	-4.3
COc1cc(C2SC(C)C(=O)N2CCc2ccccc2)cc(OC)c1OC (stereo not drawn)	1.35
CN(CCc1ccccn1)c1ncnc2[nH]ncc12	4.32
CCOC(=O)N/N=C/C=C/c1ccccc1	11.8
Cc1cc(C(=O)NCCCn2ccnc2)cs1	-4.08
CCOc1cc(C2C(C(=O)OC)=CN(Cc3ccc(Cl)cc3)C=C2C(=O)OC)ccc1O	10.3
N#C/C(=C\c1ccc2c(c1)OCCO2)C(=O)NC1CCCCC1	5.87
CCCNC(=O)COC(=O)c1cccnc1Nc1ccccc1F	5.28
Cc1ccc(C(=O)NN(CCC#N)C2=NS(=O)(=O)c3ccccc32)cc1	11.6
Nc1nonc1-c1noc(COc2ccccc2Cl)n1	-4.75
O=C(CCc1cccc(Cl)c1)NC1CCCN(Cc2ccccc2F)C1 (stereo not drawn)	10.7

Compound	hERG current change (%, negative = inhibition) at 1uM [%]
CCNS(=O)(=O)c1ccc(CCC(=O)NCc2ccccc2)cc1	7.05
Cc1ccc(-c2onc3ccc(C4(C)OCCO4)cc23)cc1	7.67
COc1ccccc1N1CCN(C(CNC(=O)c2ccco2)c2cccnc2)CC1 (stereo not drawn)	-0.755
Br.CCCN1CCc2cc(O)cc3c2[C@H]1Cc1ccc(O)c(O)c1-3.O	-16.6
CN(C)C(=O)c1cnc(Sc2ncc(C(F)(F)F)cc2Cl)n1C	14.9
Oc1cc2ccccc2nc1-c1ccccc1Cl	16.9
O=C(NCc1ccco1)c1ccc(CS(=O)(=O)Cc2ccc(Cl)cc2)o1	1.46
C/C(=N/NC(=O)c1ccc2c(c1)OCO2)c1ccc(NC(=O)C(F)(F)F)cc1	11.4
Cc1ccc2oc(C(=O)NCC(c3ccco3)N(C)C)c(C)c2c1 (stereo not drawn)	3.53
Clc1cc(Cl)c(-c2cc(Cl)c(Cl)cc2Cl)cc1Cl	12.7
CCOc1ccc2nc(NC(=O)c3cc([N+](=O)[O-])ccc3N3CCOCC3)sc2c1	8.4
COC(=O)C1CCN(C2CC(=O)N(c3cc(C)cc(C)c3)C2=O)CC1 (stereo not drawn)	6.59
CC(C)c1ccc(N2C(=O)CC(Sc3ncn[nH]3)C2=O)cc1 (stereo not drawn)	9.56
COc1cccc(OCC(=O)NNC(=O)c2ccc(-c3ccccc3)cc2)c1	-2.47
COc1ccc(/C=C(\C#N)C(=O)OCC(=O)NCc2ccc(Cl)cc2)cc1	3.57
Cc1ccc(/C=N/NC(=O)c2ccc(-c3ccccc3)cc2)o1	5.02
CN(C)S(=O)(=O)N1CCN(C(=O)c2cccs2)CC1	6.56
N#CC1=C(N)C(C#N)(C#N)C(c2ccncc2)C2CN(C(=O)OCc3ccccc3)CC=C12 (stereo not drawn)	8.49
CC1CCCCN1CCCNC(=O)c1ccc2c(=O)n(CCc3ccccc3)c(=O)[nH]c2c1 (stereo not drawn)	5.96
CCC(C(=O)Nc1c(C)cc(C)cc1C)N1CCCCCC1 (stereo not drawn)	9.72
O=C(O)C1CC=CCC1C(=O)Nc1cccc(C(=O)N2CCCCC2)c1 (stereo not drawn)	9.67
CCN(CC)c1ccc(NC(=O)c2ccccc2)cc1S(=O)(=O)Nc1ccccc1OC	11.2

Compound	hERG current change (%, negative = inhibition) at 1uM [%]
Cc1ccc(C)c2sc(N)nc12	9.5
Cc1occc1C(=O)N/N=C/c1c[nH]c2ccccc12	-0.697
C/C(=N\NS(=O)(=O)c1ccccc1)c1ccc2c(c1)OCO2	-9.43
Cc1ccc(S(=O)(=O)N(Cc2ccccc2)c2ccccc2C(=O)NCc2cccnc2)cc1	3.82
Cc1ccc(NC(=O)C2CCCN(S(=O)(=O)c3c(C)noc3C)C2)cc1 (stereo not drawn)	12.8
CC(C)c1nnc(NC(=O)C2CCCN2C(=O)Nc2ccc(F)cc2)s1 (stereo not drawn)	13.1
CN(C)c1ccc(-c2noc(C3CCN(S(=O)(=O)c4cccc(C(=O)O)c4)CC3)n2)cc1	13.6
CCCn1c(NC(=O)c2cccc(S(=O)(=O)N3CCCC3)c2)nc2ccccc21	-9.49
O=C(Nc1ccc(OCc2ccccc2)cc1)Nc1ccccc1C(=O)NCCCN1CCOCC1	13.8
CCn1cnc2c1c(=O)n(CC(=O)N1CCc3ccccc31)c(=O)n2Cc1ccccc1	11
N/C(Cc1cccs1)=N\OC(=O)COc1ccccc1	12.3
N#CCCn1cc(/C=N/NC(N)=S)c(-c2ccc(-c3ccccc3)cc2)n1	7.42
Cc1ccc2[nH]c3c(N4CCN(Cc5ccccc5)CC4)ncnc3c2c1	6.45
COC(=O)C1=C(c2c(C)noc2C)C[C@@H]2CC[C@H]1N2C(=O)NC1Cc2ccccc2C1	6.81
CCCCN(C(=O)CSCC(=O)Nc1ccc(OC)cc1)c1c(N)n(Cc2ccccc2)c(=O)[nH]c1=O	6.01
Cc1ccc(C)c(S(=O)(=O)N2CCCC2CNC(=O)C(=O)NC2CC2)c1 (stereo not drawn)	19.1
CC(C)(C)c1cc(NC(=O)COC(=O)C2CC2)n(-c2ccccc2)n1	6.45
COC(=O)c1cc(C(=O)OCC(=O)NCc2ccc3c(c2)OCO3)cc([N+](=O)[O-])c1	8.19
CCCN1C2CCCC1CC(NC(=O)Nc1ccc(C(C)C)cc1)C2 (stereo not drawn)	14.2
O=c1[nH]c(Nc2ccc3c(c2)OCCO3)nnc1Cc1ccc(Cl)cc1	24.5
CC(C)(C)OC(=O)NCCCC[C@H](NC(=O)c1nc[nH]c1C(=O)N1CCc2ccccc2C1)C(=O)OC(C)(C)C	3.3
